Data published in PubChem BioAssay AID1030 (National Center for Advancing Translational Sciences (NCATS), 2008).
Several values for one entry are separate records, joined by “and”; a condition that tells them apart may be missing. Identical values can stand only once. In all, about 220,000 compounds went through this assay and about 16,000 (7.3%) were called active. The shares of active, inactive and inconclusive entries below differ from those in the screen. Calls follow the shape of the dose curve; as a rule, active = well fitted inhibition curve with a large enough effect (not every such curve was filed as active); inconclusive = small, poorly fitted or top-dose-only effect, or another doubt; inactive = no such curve, though single readings can be large or run the other way. Potencies of inconclusive entries are left out as doubtful fits.

Biological target: Aldehyde dehydrogenase 1A1 (Homo sapiens) (UniProt P00352)
Sequence of UniProt P00352 (P00352 whole entry, looked up): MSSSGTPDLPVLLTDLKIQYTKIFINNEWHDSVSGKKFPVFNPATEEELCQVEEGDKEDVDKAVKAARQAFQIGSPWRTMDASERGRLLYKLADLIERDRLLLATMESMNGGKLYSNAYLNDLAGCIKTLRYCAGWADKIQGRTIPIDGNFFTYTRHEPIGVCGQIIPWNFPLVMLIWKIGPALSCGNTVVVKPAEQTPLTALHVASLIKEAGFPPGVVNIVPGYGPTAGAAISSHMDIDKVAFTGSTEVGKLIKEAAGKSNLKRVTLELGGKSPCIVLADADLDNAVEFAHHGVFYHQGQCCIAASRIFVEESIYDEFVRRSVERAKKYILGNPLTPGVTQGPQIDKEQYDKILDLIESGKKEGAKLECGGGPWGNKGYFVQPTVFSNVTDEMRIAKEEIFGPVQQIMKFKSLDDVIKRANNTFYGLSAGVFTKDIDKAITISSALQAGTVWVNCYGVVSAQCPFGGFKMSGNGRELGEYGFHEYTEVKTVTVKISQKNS
Test: qHTS Assay for Inhibitors of Aldehyde Dehydrogenase 1 (ALDH1A1);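 as to activity, negative = inhibition: plate controls were no enzyme wells and a reference inhibitor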
Conditions: Purified ALDH1A1, NADH fluorescence, propionaldehyde substrate; series mostly up to 75.3 µM; activity, negative = inhibition: at the top concentration
Potency is read from the fitted curve at half-maximal effect; tags tell the direction and shape of the fitted curve.

| SMILES | activity, negative = inhibition | Potency |
| --- | --- | --- |
| COc1ccccc1CNC(=O)CC(NS(=O)(=O)c1ccc(C)cc1)c1ccco1 (stereo unspecified) | inactive: -16.1% | – |
| O=C(CSc1n[nH]c(-c2ccccc2)n1)NCc1cccc(C(=O)O)c1 | inactive: -0.0352% | – |
| CCC(=O)Nc1c(OC(=O)CC)ccc2c(C)cc(=O)oc12 | – | inconclusive [inhibitor, partial curve] |
| COc1ccc(CN(C)CC(=O)Nc2sc3c(c2C#N)CCC3)cc1OC | – | active: 14.1 µM |
| Cc1ccc2oc(=O)c3c4cc(O)c(O)c(C)c4oc3c2c1 | inactive: 8.32% | – |
| COc1cc(/C=C2\C(=O)ON=C2c2ccccc2)cc(OC)c1OC | – | inconclusive [inhibitor, partial curve] |
| COc1cc(C2c3cc4c(cc3C(OC3OC5COC(C)O[C@@H]5C(O)C3O)C3COC(=O)C23)OCO4)cc(OC)c1O (stereo partly specified) | inactive: -0.186% | – |
| Cc1cc(-c2n[nH]c(=S)n2-c2ccccc2)nn1C | – | inconclusive [inhibitor, single point] |
| CC(C)(C)C(=O)NC(=S)N1CCCC1 | inactive: 12.9% | – |
| COc1ccc(CNc2nc3c(c(=O)n(Cc4ccc(Cl)cc4)c(=O)n3C)n2C)cc1 | – | inconclusive [inhibitor, partial curve] |
| CCn1cc(C(=O)NCC2COc3ccccc3O2)c2cc(OC)c(OC)cc2c1=O (stereo unspecified) | – | inconclusive [inhibitor, single point] |
| CCOc1ccc(C(=S)NC2CCCCC2)cc1OC | – | active: 39.8 µM |
| CCN1CCN(C(c2cc3cccc(C)c3[nH]c2=O)c2nnnn2Cc2ccccc2)CC1 (stereo unspecified) | – | inconclusive [inhibitor, single point] |
| CCN(CC)S(=O)(=O)c1ccc(N2CCOCC2)c(NC(=O)CNCCc2ccccc2)c1 | – | active: 11.2 µM |
| Cc1cc2c(ncn2Cc2ccccc2)c([N+](=O)[O-])c1C | – | inconclusive [inhibitor, partial curve] |
| O=C(O)C1C2C=CC(C2)C1C(=O)Nc1ccc(C(=O)N2CCCCC2)c(Cl)c1 (stereo unspecified) | inactive: -6.05% | – |
| COc1cccc(C(C#N)N2N=C(C)CC2(C)C)c1O (stereo unspecified) | – | inconclusive [inhibitor, single point] |
| Cc1ccc(C(NC(=O)N2CCCC2)C(Cl)Cl)cc1F (stereo unspecified) | – | active: 11.2 µM |
| COc1cc(NC(=O)c2cccs2)c(C(=O)OCC(=O)NCc2ccco2)cc1OC | – | inconclusive [inhibitor, single point] |
| CN(C)S(=O)(=O)c1cccc(C(=O)N2CCN(Cc3ccccc3)CC2)c1 | – | inconclusive [inhibitor, single point] |
| O=C(Oc1ccccc1)N1CCC2(CC1)CCN(c1ccncc1)CC2 | – | inconclusive [inhibitor, single point] |
| CCCCNC(=O)c1c(C)cc(=O)oc1C | – | inconclusive [inhibitor, single point] |
| C/C(=C\CO)CCO | inactive: 1.28% | – |
| Cc1ccc2[nH]cc(C(=O)NCc3cccs3)c(=O)c2c1 | – | active: 15.8 µM |
| c1ccc(-n2cnc3cc(NCc4ccco4)ccc32)cc1 | – | inconclusive [inhibitor, single point] |
| O=C(Nc1nc2ccc(F)cc2s1)C1CCN(S(=O)(=O)c2cc([N+](=O)[O-])ccc2Cl)CC1 | – | inconclusive [inhibitor, partial curve] |

| SMILES | activity, negative = inhibition | Potency |
| --- | --- | --- |
| O=C1CCC(C(=O)NCc2ccc3c(c2)OCO3)N1 (stereo unspecified) | inactive: 9.54% | – |
| COc1cc(C(=O)NCC(c2cccnc2)N2CCN(c3ccc(F)cc3)CC2)cc(OC)c1OC (stereo unspecified) | inactive: -2.36% | – |
| COc1ccccc1CNC(=O)CSC1=NCCS1 | – | inconclusive [inhibitor, single point] |
| COc1cccc(N2CCN(C(=O)c3ccc(CSc4nc5ccncc5[nH]4)cc3)CC2)c1 | – | active: 22.4 µM |
| O=C1CSC(c2cccnc2)N1Cc1cccnc1 (stereo unspecified) | – | inconclusive [inhibitor, single point] |
| Cc1ccccc1NP(=O)(c1ccccc1)c1nc2ccccc2s1 (stereo unspecified) | – | inconclusive [inhibitor, single point] |
| CC1=C(C)C(=O)C(CCCCC#CCCCC#CCO)=C(C)C1=O | – | active: 1.78 µM and active: 14.1 µM |
| CNc1nc(N)nc(-c2cc(Cl)ccc2OC)n1 | – | inconclusive [inhibitor, single point] |
| Cc1ccc(NCC(=O)N/N=C/c2ccc(-c3cccc(C(F)(F)F)c3)o2)cc1 | – | inconclusive [inhibitor, single point] |
| CC1(C)Cc2c(sc3c2C(=O)N(c2ccccc2)C2=NCCCN23)CO1 | – | inconclusive [inhibitor, single point] |
| CCOC(=O)Cc1csc(NC(=O)c2csc3c2CCCC3)n1 | – | active: 14.1 µM |
| COc1ccc2oc(=O)c(C(=O)O)cc2c1 | – | inconclusive [inhibitor, partial curve] |
| COCCNC(=O)CN1C(=O)NC2(CCCCCC2)C1=O | inactive: 0.134% | – |
| O=S(=O)(c1ccccc1)N1CCN(c2ncnc3sc(-c4ccccc4)cc23)CC1 | – | inconclusive [inhibitor, single point] |
| CCC(=O)N(CCc1ccccc1)Cc1cc2cc3c(cc2[nH]c1=O)OCO3 | – | inconclusive [inhibitor, partial curve] |
| CCCn1c(CCC(=O)O)ccc1-c1ccc(F)cc1 | – | inconclusive [inhibitor, single point] |
| Cc1ccc(S(=O)(=O)n2nc(OC(=O)c3cccs3)cc2N)cc1 | – | active: 2 µM |
| Nc1ccccc1Nc1cc(-c2cccc(Cl)c2)nn1-c1ccccc1 | inactive: 7.34% | – |
| COc1ccc(C(=O)N[C@H](C(=O)OCc2cc(=O)oc3cc(C)ccc23)C(C)C)cc1 | – | active: 11.2 µM |
| O=c1c(-c2ccc(F)cc2)nc2cnc(Nc3ccccc3)nc2n1C1CC1 | inactive: 4.62% | – |
| O=C(c1ccccc1)N1CCCCC(Cl)C1=O (stereo unspecified) | – | inconclusive [inhibitor, single point] |
| c1ccc(-n2nnc3cnccc32)cc1 | – | active: 1.26 µM |
| Cn1c(N)c(C(=O)COC(=O)c2ccc([N+](=O)[O-])o2)c(=O)n(C)c1=O | – | inconclusive [inhibitor, single point] |
| CC(C)c1nnc(NC(=O)Cc2ccccc2[N+](=O)[O-])s1 | – | inconclusive [inhibitor, partial curve] |
| Cc1ccc(NC(=O)c2nnn(-c3cc(C)cc(C)c3)c2N)cc1 | – | inconclusive [inhibitor, single point] |
| Clc1ccc(CNc2cnccn2)cc1 | – | inconclusive [inhibitor, single point] |

| SMILES | activity, negative = inhibition | Potency |
| --- | --- | --- |
| Cc1ccc(CC2CC(=O)N(Cc3ccco3)C2=O)cc1 (stereo unspecified) | – | active: 18.9 µM |
| CCC(Sc1nc2ncnc(N)c2[nH]1)C(=O)O (stereo unspecified) | inactive: 6.28% | – |
| O=C1C2C(C(=O)N1CCc1ccccc1)C1C=CC2C12CC2 (stereo unspecified) | – | inconclusive [inhibitor, single point] |
| COc1ccc(NC(=O)N2CCC3(CC2)CCN(C(=O)c2ccco2)CC3)cc1 | inactive: -14.7% | – |
| COc1ccc(C(C[N+](=O)[O-])n2nc(C)cc2C)cc1 (stereo unspecified) | – | active: 10 µM |
| CCC1CCCCN1C(=O)CSc1nc2c(cnn2-c2ccc(C)cc2)c(=O)[nH]1 (stereo unspecified) | – | inconclusive [inhibitor, full curve] |
| CCCCC(=O)Nc1cc(C)c2c(=O)oc3ccccc3c2n1 | – | inconclusive [inhibitor, partial curve] |
| Cn1cnnc1SCC(=O)c1ccc2c(c1)OCCO2 | – | active: 8.91 µM |
| Cn1cccc1/C=N/NC(=O)Cn1cnc2ccccc21 | inactive: -8.64% | – |
| NC(=S)n1[nH]c(-c2ccc([N+](=O)[O-])cc2)c(N=Nc2cccc(Cl)c2)c1=O | – | inconclusive [inhibitor, single point] |
| O=C(C1CCN(S(=O)(=O)c2ccc(F)cc2)CC1)N1CC=C(c2ccccc2)CC1 | – | inconclusive [inhibitor, single point] |
| COC(=O)c1cc(C)sc1NC(=O)c1cccnc1 | inactive: 1.89% | – |
| CSc1ccc(S(=O)(=O)NC2CCCCCC2)cc1 | – | inconclusive [inhibitor, full curve] |
| N#CC(C(=O)Nc1ccc(Cl)c(Cl)c1)=C1Nc2ccccc2N1 | – | inconclusive [inhibitor, partial curve] |
| COc1ccc(NC(=O)c2cc(C(C)C)on2)cc1OC | – | inconclusive [inhibitor, single point] |
| COc1ccc(OCCCC(=O)NCCc2ccccc2)cc1 | inactive: 6.31% | – |
| Cn1c(NCC2CCCO2)nc2c1c(=O)n(Cc1ccccc1)c(=O)n2C (stereo unspecified) | inactive: -7.85% | – |
| CC1(NC(=S)Nc2ccccc2)CCS(=O)(=O)C1 (stereo unspecified) | – | inconclusive [inhibitor, single point] |
| COc1cc(/C=N/NC(=O)CCC(=O)NCc2ccccc2)cc(OC)c1OC | inactive: 2.26% | – |
| Cc1ccc(S(=O)(=O)N/N=c2\sc3ccccc3n2C)cc1 | inactive: 2.25% | – |
| O=c1c2cc(NC(=S)N3CCCCC3)ccc2nc2n1CCCCC2 | – | inconclusive [inhibitor, single point] |
| Cc1cc(N2CCC(C)CC2)nc(NCc2ccccc2)n1 | – | inconclusive [inhibitor, partial curve, poor fit] |
| CCCCN(CC)CCCNC(=S)Nc1ccc2nc(N3CCN(CC)CC3)cc(C)c2c1 | – | inconclusive [inhibitor, single point] |
| CSc1nsc(SCC(=O)Nc2ccc(Br)cn2)n1 | – | inconclusive [inhibitor, single point] |
